In article PMC11614109, “Revisiting sodium phosphotungstate and ammonium molybdate as nonradioactive negative-staining agents for single-particle analysis” (Acta Crystallographica Section F: Structural Biology …, 2024):

Molecular target: the molecule itself
Assay: negative-stain EM, single-particle analysis (2D classes and 3D reconstruction); purified β-galactosidase at 2.1 mg mL^-1 on continuous carbon grids, stained with UF, or with SPT or AMo after on-grid fixation with 0.15% glutaraldehyde; 3D classification in C1, refinement with D2 symmetry, maps filtered to 10 Å

B1: E. coli β-galactosidase (enzyme)
chain: not shown
notes: β-galactosidase of E. coli, bought as lyophilized protein; the atomic model PDB 6x1q was rigid-body fitted into the maps; On grids for AMo or SPT staining the protein was fixed with 0.15% glutaraldehyde; not for UF staining; source: bought: Sigma–Aldrich (catalogue No. G5635-3KU), lyophilized protein; further purified by size-exclusion chromatography (Superdex 200 Increase 10/300 GL)
  stoichiometry N: 4
